Source: PubChem BioAssay AID1347428 (National Center for Advancing Translational Sciences (NCATS), 2020)
Hit rate of the full screen: of about 91,000 compounds, about 290 (0.32%) were called active. The inconclusive results got no clear call from the source; some entries with a clear call stand among them for comparison. Calls come from the whole dose curve; as a rule, active = well fitted inhibition curve with a large enough effect; inconclusive = small, poorly fitted or top-dose-only effect; inactive = no such curve, though single readings can be large or run the other way. Where the call is inconclusive, the potency comes from a doubtful curve fit.

Biological target: Single-stranded DNA cytosine deaminase (Homo sapiens) (UniProt Q9GZX7)
Test: Primary qHTS assay for inhibitors of Activation Induced Cytidine Deaminase (AID): AID signal; note: nearly all actives have a fitted effect of over 25% in size
Conditions: AID deamination FRET fluorescence, UDG-coupled, 4 h; series mostly up to 115 µM
Potency is the fitted concentration of half-maximal effect; tags give direction and shape of the fitted curve.

Chain of UniProt Q9GZX7 (Q9GZX7 whole entry, looked up): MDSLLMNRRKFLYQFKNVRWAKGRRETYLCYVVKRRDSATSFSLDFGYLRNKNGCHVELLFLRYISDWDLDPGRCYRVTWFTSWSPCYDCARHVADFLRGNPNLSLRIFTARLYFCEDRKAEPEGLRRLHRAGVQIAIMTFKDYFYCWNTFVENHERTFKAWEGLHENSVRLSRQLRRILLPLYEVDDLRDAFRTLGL

Row | Structure (SMILES) | Potency
1 | Cc1ccccc1S(=O)(=O)N1CCC(n2c(CC(C)C)nc3cccnc32)CC1 | inconclusive: 63.1 µM [inhibitor, partial curve, poor fit]
2 | CCOc1ccccc1NC(=O)CSc1c(C)cnc2c1c(=O)n(C)c(=O)n2C | inconclusive: 50.1 µM [inhibitor, partial curve, poor fit]
3 | O=C(O)C/C(=C/c1ccc(-c2ccccc2)cc1)c1nc2ccccc2s1 | inconclusive: 79.4 µM [inhibitor, partial curve, poor fit]
4 | Cc1ccc2c(CC(=O)N3CCN(c4cccc(Cl)c4)CC3)coc2c1 | inconclusive: 12.6 µM [inhibitor, full curve, poor fit]
5 | Cc1nc2ccc(S(=O)(=O)NC(C(=O)NCc3ccccc3Cl)C(C)C)cc2s1 (stereo not given) | inconclusive: 89.1 µM [inhibitor, single point]
6 | c1ccc(-c2cc(-c3ccccc3)c3c(n2)-c2ccccc2OC3)cc1 | inconclusive: 89.1 µM [inhibitor, partial curve, poor fit]
7 | Cc1ccc(C(=O)NCCSc2c(C)[nH]c3ccccc23)cc1C | inconclusive: 39.8 µM [inhibitor, partial curve]
8 | Cn1ccnc1C(=O)c1ccc(NC(=O)C(=O)NC2CCCCC2)cc1 | inactive
9 | CC(CNC(=O)c1sc2ncccc2c1-n1cccc1)c1ccccc1 (stereo not given) | active: 79.4 µM
10 | Cc1cccc(NC(=O)CSc2nc3c(oc4ccccc43)c(=O)n2-c2ccccc2)c1C | inconclusive: 5.01 µM [inhibitor, full curve, poor fit]
11 | CCCN(CCC)CCCNC(=O)c1cc2c(-c3ccc(Cl)cc3)nn(C)c2s1 | inconclusive: 50.1 µM [inhibitor, partial curve, poor fit]
12 | N#Cc1ccc(COC(=O)c2ccc3ccccc3n2)cc1 | inactive
13 | Cc1cc(F)ccc1NC(=O)CCS(=O)(=O)c1cccc2nsnc12 | inconclusive: 3.16 µM [inhibitor, full curve, poor fit]
14 | Cc1ccccc1CN1C(=O)c2ccccc2Sc2ccc(C(=O)N3CCOCC3)cc21 | inconclusive: 89.1 µM [inhibitor, partial curve, poor fit]
15 | COc1ccc(CC(=O)Nc2c(C(=O)N3CCN(c4ccccc4F)CC3)oc3ccccc23)cc1OC | inconclusive: 56.2 µM [inhibitor, partial curve, poor fit]
16 | Fc1ccc(C2Cc3ccccc3N2)cc1 (stereo not given) | inactive
17 | O=C(/C=C/c1ccccc1)c1ccc(-n2cc(-c3ccccc3)cc2-c2ccccc2)cc1 | inconclusive: 35.5 µM [inhibitor, partial curve, poor fit]
18 | COc1ccc(-n2nnnc2C2CCN(S(=O)(=O)c3cc(Cl)ccc3OC)CC2)cc1 | inconclusive: 79.4 µM [inhibitor, partial curve, poor fit]
19 | O=C1CCCC2=C1C(c1ccccc1Cl)CC(=O)N2c1ccccc1F (stereo not given) | inconclusive: 35.5 µM [inhibitor, partial curve, poor fit]
20 | C=CCn1c(SCC(=O)Nc2ccccc2)nc2c1c(=O)n(C)c(=O)n2C | inactive

Row | Structure (SMILES) | Potency
21 | O=C(NCc1cccnc1)C1c2ccccc2C(=O)N(Cc2ccccc2)C12CCCCC2 (stereo not given) | inactive
22 | O=C(CCN1CCC(c2ccccc2)C1)c1cccc2ccccc12 (stereo not given) | inactive
23 | Cc1cccc(N2CCN(C(=O)c3ccc4c(c3)c(C)c(C)n4C)CC2C)c1 (stereo not given) | inconclusive: 70.8 µM [inhibitor, partial curve]
24 | CC1CCN(S(=O)(=O)c2nnc(NC(=O)c3cccc(F)c3)s2)CC1 | inactive
25 | Cc1ccccc1OCC(=O)Nc1ccc2c(c1)nc(Cn1cccn1)n2CC(C)C | inactive
26 | CC1CCCCN1C(=O)CSc1nnc(-c2ccccc2Cl)o1 (stereo not given) | inconclusive: 100 µM [inhibitor, single point]
27 | CCOc1ccc(N(CC)S(=O)(=O)N2CCCC(C(=O)NCCc3ccccc3OC)C2)cc1 (stereo not given) | inconclusive: 56.2 µM [inhibitor, partial curve, poor fit]
28 | O=c1c(Cl)c(N2CCN(Cc3ccccc3)CC2)cnn1Cc1ccc(Cl)cc1 | inconclusive: 35.5 µM [inhibitor, partial curve, poor fit]
29 | COc1ccc(NC(=O)C(=O)NCC2(c3ccccc3)CCCC2)c(OC)c1 | inconclusive: 10 µM [inhibitor, full curve, poor fit]
30 | CCOc1ccc(-c2cc(C(=O)N3CCN(c4cccc(C(F)(F)F)c4)CC3)c3ccccc3n2)cc1 | inconclusive: 20 µM [inhibitor, full curve, poor fit]
31 | S=C(NCCc1ccc(Cl)cc1Cl)NC1CC2CCC1C2 (stereo not given) | inconclusive: 35.5 µM [inhibitor, partial curve, poor fit]
32 | Cc1c(C(=O)N2CCC(C)CC2)c(S(=O)(=O)N2CCN(c3cccc(Cl)c3)CC2)c(C)n1C | inconclusive: 31.6 µM [inhibitor, full curve, poor fit]
33 | O=C(c1cc(-c2cccs2)on1)N1CCCC1c1cccc(F)c1 (stereo not given) | inconclusive: 35.5 µM [inhibitor, partial curve, poor fit]
34 | Cc1ccn2c(Nc3ccc4c(c3)OCCO4)c(-c3ccc(C)s3)nc2c1 | inconclusive: 89.1 µM [inhibitor, single point]
35 | CCOC(=O)c1cc(-c2ccccc2)n(CCCC(=O)Nc2cc(C)ccc2OC)c1C | inconclusive: 31.6 µM [inhibitor, partial curve]
36 | CCCCCCCn1c(CN2CCN(c3ccccc3)CC2)nc2c1c(=O)n(C)c(=O)n2C | inconclusive: 17.8 µM [inhibitor, full curve, poor fit]
37 | Cc1cccn2cc(CN3CCN(S(=O)(=O)c4ccccc4)CC3)nc12 | inactive
38 | Cc1ccc2nc(N3CCN(C(=O)CC4(CC(=O)O)CCCC4)CC3)nc(-c3ccccc3)c2c1 | inconclusive: 89.1 µM [inhibitor, partial curve, poor fit]
39 | O=C(CN(Cc1cccs1)CC1CCCO1)Nc1ccc2ccccc2c1 (stereo not given) | inconclusive: 44.7 µM [inhibitor, partial curve, poor fit]
40 | COc1ccccc1-c1nnc(SCC(=O)c2ccc(F)cc2)n1-c1ccccc1 | inconclusive: 39.8 µM [inhibitor, partial curve, poor fit]

Row | Structure (SMILES) | Potency
41 | Cn1nnnc1SCCNCc1ccc(OCc2ccc(Cl)cc2)cc1 | inconclusive: 35.5 µM [inhibitor, partial curve, poor fit]
42 | COc1ccccc1CN1CCC(CNC(=O)c2cnn(-c3ccc(C)c(C)c3)c2C2CCN(C(=O)OC(C)(C)C)CC2)CC1 | inconclusive: 89.1 µM [inhibitor, partial curve, poor fit]
43 | O=C(CCS(=O)(=O)Cc1cccc(F)c1)Nc1ccc(F)cc1 | inactive
44 | Cc1cc(OCC(=O)NCC2(N3CCOCC3)CCCCC2)ccc1Cl | inconclusive: 79.4 µM [inhibitor, partial curve, poor fit]
45 | Cc1cccc(N2CCN(C(c3ccccc3)c3nnc(-c4ccccc4Cl)o3)CC2)c1C (stereo not given) | inconclusive: 11.2 µM [inhibitor, full curve]
46 | COC(=O)c1cc(NC(=O)c2ccc3c(c2)NC(=O)c2ccccc2S3)cc(C(=O)OC)c1 | inactive
47 | COc1ccc(-c2nc3c(c(SCC(=O)N4CCCCC4)n2)Cc2c(CO)cnc(C)c2O3)cc1 | inconclusive: 100 µM [inhibitor, partial curve, poor fit]
48 | Cc1ccc(N2CCN(S(=O)(=O)c3ccc4[nH]c5c(c4c3)CCCCC5)CC2)c(C)c1 | inconclusive: 12.6 µM [inhibitor, full curve, poor fit]
49 | CCCC(=O)Nc1ccc(Cl)c(-c2nc3ccccc3o2)c1 | inactive
50 | Cc1ccc(Cl)cc1N1CCN(C(=O)c2cc3c(-c4ccccc4F)nn(C)c3s2)CC1 | inconclusive: 50.1 µM [inhibitor, partial curve, poor fit]
51 | CCc1ccc2oc(-c3cc(NC(=O)c4cc([N+](=O)[O-])ccc4N4CCOCC4)ccc3Cl)nc2c1 | inconclusive: 20 µM [inhibitor, full curve, poor fit]
52 | COc1ccccc1NC(=O)CSC1=Nc2ccccc2C2=NC(CC(=O)NCc3cccs3)C(=O)N12 (stereo not given) | inconclusive: 11.2 µM [inhibitor, full curve, poor fit]
53 | Cc1oc(-c2cccc(Cl)c2)nc1Cn1c(SCc2ccccc2F)nc2ccncc21 | inconclusive: 15.8 µM [inhibitor, full curve]
54 | COc1ccccc1C1c2c(n[nH]c2C)Nc2[nH]c(=O)[nH]c(=O)c21 (stereo not given) | inactive
55 | COc1ccc(Cn2nnc3c(=O)[nH]c(C4CCN(C(=O)c5ccc(C)cc5)CC4)nc32)cc1OC | inconclusive: 89.1 µM [inhibitor, single point]
56 | O=C(NCC(c1cccs1)N1CCCC1)c1nn(Cc2ccccc2)c(=O)c2ccccc12 (stereo not given) | inconclusive: 50.1 µM [inhibitor, partial curve, poor fit]
57 | CCOC(=O)c1cc(-c2ccc(OC)cc2)n(CCC(=O)Nc2nc3ccc(OCC)cc3s2)c1C | inconclusive: 56.2 µM [inhibitor, partial curve, poor fit]
58 | CCC1CCCCN1C(=O)Cn1c(=O)cc(C(F)(F)F)c2c(C)nn(C)c21 (stereo not given) | inconclusive: 79.4 µM [inhibitor, partial curve, poor fit]
59 | COc1ccc(-c2cc(=O)n3[nH]c(C)nc3n2)cc1 | inactive
60 | COc1ccccc1CN1CCC(CNC(=O)c2cnn(-c3ccc(Cl)cc3)c2C2CCN(C(=O)OC(C)(C)C)CC2)CC1 | active: 44.7 µM
